In the RNAGym collection of RNA variant scans (doi:10.7554/elife.90254):
The source gives no read counts; variants with many changes may rest on few reads.

B1: OR4K15 (parent)
chain: GUUAACGGUCAUAGGCCAUGGAAACUAGGAGCACCAUUUCGCUGCCAGUGAAGAAAUGAACAAAGAAAAUCUGGGCCAGGCAGGCAUCAAAAGAAAUAGUCUUGCGCUCAACCAGAAAGUCUGUAAUCAUUUUAAGGGUA

Variants of: B1
Test: self-cleavage, relative activity (ratio to wild type); higher = more cleavage; in vitro, sequencing; the parent is a self-cleaving ribozyme

| Variant | self-cleavage |
| --- | --- |
| A51G A96C U97C A129G U130C | 0.49 |
| A51G A114G A129G | 0.04 |
| A51G G80U A111G | 0.01 |
| G48A A69G U70C A92G A126G A140G | 0.2 |
| A51U A68U A98G | 1.15 |
| U49C A117G A135U | 2.38 |
| U49G U57A A111G G123A A126G | 0 |
| A51G A78U U103C | 0.16 |
| A51G A52G A94G | 1.21 |
| A51G A94G A118G | 1.2 |
| U49C A63G U100G | 1.55 |
| U49A A52G A96G U102C | 2.02 |
| U49G U103C A134G G138U | 0.64 |
| A51U A60U G75C A89G A116G | 0.06 |
| U49C A56G A64G A86G A126G | 0.73 |
| A51G A67G A117G | 1.44 |
| A51G A66U A69G | 0.99 |
| U49G A60G U70C A91G | 0.34 |
| A51G A110G U132C | 0.13 |
| A51G A69U U102A | 1.17 |
| U49C A64G U87C A92G A134G | 0.88 |
| A51G A59U U87C U127C | 0.5 |
| U49C A60G U87G C88U U103C | 0.7 |
| A52C A54G A92G A140C | 0.91 |

| Variant | self-cleavage |
| --- | --- |
| U49C U70C A118G A140G | 0.56 |
| U49G A91G A129G | 0.47 |
| A47U G104U U130C | 0.01 |
| U49G A56G A86U A92U U127G U131C | 1.64 |
| A51G A78G A92U | 0.5 |
| A47U A86U A111G | 0.03 |
| U49C U100C U122C | 1.51 |
| A51U A89C A110G | 0.15 |
| A51G A68G U87C U127C | 0.38 |
| A51G A56G A69U | 0.85 |
| A51G A91G A126G U131C | 0.98 |
| A51G A63G A118G A126U U131C | 0.28 |
| U49C U72A A114G | 0.06 |
| A47U U103C A117G | 0.38 |
| A47U U87C A110G | 0.09 |
| A51U A60G A96U C101U | 0.41 |
| U49C A51G U57C U122A | 0.63 |
| A51G A62G A86G A129U | 0.53 |
| U49G A62G G83A A95G A110C | 0.3 |
| U49A A89G U97C | 1.22 |
| U49G A116U U133A | 0.27 |
| A47U U49C A55U | 0.21 |
| G48A U72A A94G | 0.38 |
| A47U A82G A116U U127A | 0.05 |

| Variant | self-cleavage |
| --- | --- |
| U49C U102C U108C | 0 |
| A51G A96G U103C | 0.9 |
| A51U A56G A59G C105U A114G | 0.07 |
| U49A G75A A78G A110G U132C | 0.01 |
| A47U A63G A66G G73A A134G | 0.13 |
| U49A A64G U133C | 1.63 |
| U49A A56G A78G A111G | 0.03 |
| U49A A54U A78U | 0.3 |
| U49C A54G A117G A118G | 1.87 |
| A51G A68G G123A U130C | 1.28 |
| A51G A60G A92G | 1.77 |
| A47U A86G A110G U122C | 0.04 |
| A51G A66G A116U | 0.16 |
| A47U C77A U108C | 0 |
| A47U A82G A91U A95G U100C | 1.75 |
| A51G A95G U133C | 2.83 |
| A51G A90G A125U U127C | 0.67 |
| U49C A56G A94G A95G U97C | 0.82 |
| A51G A92G A94G G99A | 0.48 |
| U49C A51G A67G | 1.7 |
| U49C A59G A62G A63G | 0.49 |
| A51C A52G G73A A91G A118U U120C | 0.02 |
| A51G A69G G79A | 0.04 |
| A51G A62U A63G A66U U87C C105U A110G | 0.05 |

| Variant | self-cleavage |
| --- | --- |
| A51G A56G U87C A129G | 0.35 |
| A51G U70C U87C | 0.63 |
| A51U A98G A114G A126G U131C | 0.06 |
| U49A A91G U130C | 0.29 |
| A51U A110G A116G | 0.04 |
| A51G A54G A55U A86G A126G U130C | 0.25 |
| A51U A114U U127A | 0.03 |
| A47U A66G U102A | 0.24 |
| U49C A59G U87C A94G | 1.06 |
| A51G A59G A140G | 0.57 |
| A51G A69U A78U A134G | 0.13 |
| U49C A118G U130C U139C | 0.19 |
| U49C G99A U108C | 0.01 |
| U49C A56G A66G A69G A116G | 0.18 |
| A51U C76U A92U U120C | 0.1 |
| A51U A62G U133C | 0.89 |
| G50A A78U A96G U131C | 0.31 |
| A47U G50U U139A | 1.13 |
| U49C A54G A66G A90G C121U | 1.45 |
| A52C A60U A68G | 1.49 |
| U49C A111C U124A | 0 |
| A51G U102G U122C A129G G137U | 0.55 |
| A52G A54G A59C U102C A117U | 1.48 |
| U49A A51G A56G A89U | 0.71 |

| Variant | self-cleavage |
| --- | --- |
| A51U C105U A125G | 0.04 |
| U49C A91G U108C A126G | 0.02 |
| A51G U72C A95G U108C A116G A126U | 0.01 |
| U49C A51G A96G U122C | 1.83 |
| A47U A89U A125G | 0.45 |
| A47U A96G A110G | 0.14 |
| G50A A51G A52G A68U U127C | 1.1 |
| A51G A56G A86G A135G | 0.69 |
| U49C A56G A59G | 0.99 |
| A51G A52G A111U | 0.14 |
| A47U A66G A90G | 0.67 |
| A47U A78G U131C | 0.16 |
| A51G A60U C88A | 1.49 |
| U49C A62G A69G A117G | 1.03 |
| U49A A51G A60G A64G U102C U108C A116U A117U | 0.01 |
| A51U A59U A78G U100A | 0.13 |
| U49C A64G A69U U72A A118G A126G | 0.33 |
| A51U A69G U108C | 0 |
| A51G U102A G104U | 0.01 |
| U49C U57C U124C | 0.79 |
| U49C A67G A69G A96G U103C G137U | 0.13 |
| A47U A86G A91G A116U | 0.01 |
| A51U A64U A82G | 0.55 |
| A51G A60U A68G U72A A96G | 0.12 |

| Variant | self-cleavage |
| --- | --- |
| U49C U70C A95G | 1.75 |
| U49A U72A U100C | 0.32 |
| A52G A54G A66G | 0.78 |
| A51G A96G U130A | 0.46 |
| U49C A117G U131C | 1.78 |
| U49C A64G A67G U102C U103G A110G A117G A135G | 0 |
| U49A A68G A118G | 0.88 |
| U49C A68G U72C A126G U130C | 0.08 |
| A51G A126G A140G | 1.14 |
| A51G A126G A140U | 1.59 |
| G50A U57C A90G | 0.87 |
| U49C A116U U131C | 0.03 |
| A51G A54G A129G | 0.85 |
| A47U A86U G115A A126G | 0.06 |
| A51C A66G U130C | 0.58 |
| A51G A111G U120A | 0.01 |
| A51U U70C A111G | 0.04 |
| U49C A59G A69G G115U A135G | 0.02 |
| A51G A55G U97C | 0.41 |
| A47U A89U A117G | 2.04 |
| A51G U70C U139C | 1.41 |
| G48A U102C A110G | 0.19 |
| U49C A60G A64G A95G A116G | 0.21 |
| A51C A90G A98U U132A | 1.36 |

| Variant | self-cleavage |
| --- | --- |
| A51G G75C U102C U130C | 0.17 |
| U49C A54G G65A | 1.39 |
| G50A A89G C105U A117G | 0.3 |
| U49A A66G U127C | 0.63 |
| A51G A55G A59G | 2.01 |
| A51G A116G A117G | 1.48 |
| A51G A116G U139C | 1.05 |
| A47U A63G A67G A78G U100C A126G U131C | 0.08 |
| G50A A51G A69G | 1.23 |
| A51G A54G C112A | 0.13 |
| A51G A59U A114U | 0.11 |
| A47U U49C A116U | 0.07 |
| A51G A89U A94U A96G | 1.32 |
| A51U U87C U131C | 0.01 |
| U49C A92G C105G | 0.01 |
| U49C A98G A118G | 0.18 |
| A51G A95G U100C A110G | 0.25 |
| U49A A91G C105U | 0.02 |
| A51G A59G G80A A86G A96G A118G | 0.08 |
| A51U A66U A114G U130C | 0.1 |
| U49A U87C G123U A125G | 0.69 |
| U49A C61U U70C | 0.39 |
| A47U A117G A126U | 0.78 |
